These results are taken from the supplement of paper PMC10369915.

This is one part of the list. Cut-off read from the data, not from the text of the source: active = 3.2 or more and inactive = the rest. The signal is at background level for most entries.
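Note: displayed peptides selected on beads carrying the immobilized SH2 domain, with library peptides lacking any tyrosine serving as negative controls.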

The target of the first assay is SHP2 C-SH2 domain E139D. The assay is described as follows: enrichment score (SH2-bound / input frequency) (ratio); bacterial display of known human phosphotyrosine sites (pTyr-Var adds point mutants) read by sequencing; higher = stronger binding; tyrosines were phosphorylated by kinases first. As to conditions: peptide library: pTyr-Var.
Take SVMVPYEPPEV [TP53_Y220_V217M]: the enrichment score is inactive: 0.914.

For the molecule CTTIQYNFMCN [TP53_Y234_H233Q_YF], the enrichment score was active: 4.25.

In the case of CTTILYNFMCN [TP53_Y234_H233L_YF], the enrichment score was active: 3.66.

Consider CTTIHYMYMCN [TP53_Y234_N235M], for which the enrichment score was inactive: 2.67.

As to CTTIHYNYKCN [TP53_Y234_M237K], the enrichment score was inactive: 3.04.

Take CTTSHYNFMCN [TP53_Y234_I232S_YF]: the enrichment score was inactive: 2.62.

As to SVVVPYEPPEG [TP53_Y220_V225G], the enrichment score is inactive: 0.814.

On to CTTIHYNYTCN [TP53_Y234_M237T], for which the enrichment score is inactive: 3.08.

Turning to CTTIHYNFMRN [TP53_Y234_C238R_YF], the enrichment score was inactive: 1.97.

Regarding SVEVPYEPPEV [TP53_Y220_V217E], the enrichment score is inactive: 0.636.

As to CTTIHYNFMCD [TP53_Y234_N239D_YF], the enrichment score was active: 4.14.

As to CTTIRYNFMCN [TP53_Y234_H233R_YF], the enrichment score was active: 3.57.

With CTTIHYNFMFN [TP53_Y234_C238F_YF], the enrichment score is inactive: 2.6.

Turning to NTTIHYNYMCN [TP53_Y234_C229N], the enrichment score is inactive: 0.869.

In the case of CTTVHYNFMCN [TP53_Y234_I232V_YF], the enrichment score was inactive: 3.08.

Consider SVVVPYEPPEL [TP53_Y220_V225L], for which the enrichment score was inactive: 0.703.

For the molecule CTTIHYNYMGN [TP53_Y234_C238G], the enrichment score was inactive: 1.42.

Consider CTTIHYNFKCN [TP53_Y234_M237K_YF], for which the enrichment score is inactive: 2.8.

In the case of CTTIHYYYMCN [TP53_Y234_N235Y], the enrichment score is active: 4.55.

A further assay concerns the target SHP2 C-SH2 domain wild-type. The assay is described as above. As to conditions: peptide library: pTyr-Var.
For the molecule SVMVPYEPPEV [TP53_Y220_V217M], the enrichment score is inactive: 0.71.

CTTIQYNFMCN [TP53_Y234_H233Q_YF]: the enrichment score was active: 3.31.

With CTTILYNFMCN [TP53_Y234_H233L_YF], the enrichment score is inactive: 2.92.

For the molecule CTTIHYMYMCN [TP53_Y234_N235M], the enrichment score was inactive: 3.06.

In the case of CTTIHYNYKCN [TP53_Y234_M237K], the enrichment score is inactive: 2.75.

As for CTTSHYNFMCN [TP53_Y234_I232S_YF], the enrichment score is inactive: 2.44.

For the molecule SVVVPYEPPEG [TP53_Y220_V225G], the enrichment score was inactive: 0.717.

With CTTIHYNYTCN [TP53_Y234_M237T], the enrichment score is active: 3.86.

For the molecule CTTIHYNFMRN [TP53_Y234_C238R_YF], the enrichment score was inactive: 1.97.

As to SVEVPYEPPEV [TP53_Y220_V217E], the enrichment score was inactive: 0.617.

Turning to CTTIHYNFMCD [TP53_Y234_N239D_YF], the enrichment score was active: 3.74.

Turning to CTTIRYNFMCN [TP53_Y234_H233R_YF], the enrichment score is active: 3.59.

For CTTIHYNFMFN [TP53_Y234_C238F_YF], the enrichment score is inactive: 2.71.

For NTTIHYNYMCN [TP53_Y234_C229N], the enrichment score is inactive: 0.891.

In the case of CTTVHYNFMCN [TP53_Y234_I232V_YF], the enrichment score is inactive: 2.69.

Consider SVVVPYEPPEL [TP53_Y220_V225L], for which the enrichment score is inactive: 0.642.

As for CTTIHYNYMGN [TP53_Y234_C238G], the enrichment score was inactive: 1.72.

As for CTTIHYNFKCN [TP53_Y234_M237K_YF], the enrichment score is inactive: 2.26.

Take CTTIHYYYMCN [TP53_Y234_N235Y]: the enrichment score was active: 3.86.

In another assay the target is SHP2 N-SH2 domain L43F. The description is as above. As to conditions: peptide library: pTyr-Var.
Consider SVMVPYEPPEV [TP53_Y220_V217M], for which the enrichment score is inactive: 0.843.

Regarding CTTIQYNFMCN [TP53_Y234_H233Q_YF], the enrichment score was active: 3.69.

In the case of CTTILYNFMCN [TP53_Y234_H233L_YF], the enrichment score was active: 3.32.

Regarding CTTIHYMYMCN [TP53_Y234_N235M], the enrichment score was inactive: 2.31.

In the case of CTTIHYNYKCN [TP53_Y234_M237K], the enrichment score was inactive: 3.17.

Take CTTSHYNFMCN [TP53_Y234_I232S_YF]: the enrichment score was inactive: 2.32.

Consider SVVVPYEPPEG [TP53_Y220_V225G], for which the enrichment score was inactive: 0.825.

Consider CTTIHYNYTCN [TP53_Y234_M237T], for which the enrichment score is inactive: 2.95.

Turning to CTTIHYNFMRN [TP53_Y234_C238R_YF], the enrichment score is inactive: 1.73.

For the molecule SVEVPYEPPEV [TP53_Y220_V217E], the enrichment score is inactive: 0.568.

As for CTTIHYNFMCD [TP53_Y234_N239D_YF], the enrichment score is active: 3.89.

As to CTTIRYNFMCN [TP53_Y234_H233R_YF], the enrichment score is active: 3.55.

In the case of CTTIHYNFMFN [TP53_Y234_C238F_YF], the enrichment score is inactive: 2.67.

Turning to NTTIHYNYMCN [TP53_Y234_C229N], the enrichment score is inactive: 0.743.

Turning to CTTVHYNFMCN [TP53_Y234_I232V_YF], the enrichment score is inactive: 3.12.

In the case of SVVVPYEPPEL [TP53_Y220_V225L], the enrichment score was inactive: 0.671.

Regarding CTTIHYNYMGN [TP53_Y234_C238G], the enrichment score was inactive: 1.2.

On to CTTIHYNFKCN [TP53_Y234_M237K_YF], for which the enrichment score was inactive: 2.73.

For CTTIHYYYMCN [TP53_Y234_N235Y], the enrichment score is active: 3.39.

A further assay deals with SHP2 N-SH2 domain T42A. The description is as above. As to conditions: peptide library: pTyr-Var.
Regarding SVMVPYEPPEV [TP53_Y220_V217M], the enrichment score is inactive: 0.677.

On to CTTIQYNFMCN [TP53_Y234_H233Q_YF], for which the enrichment score is inactive: 2.83.

For CTTILYNFMCN [TP53_Y234_H233L_YF], the enrichment score was inactive: 2.21.

Take CTTIHYMYMCN [TP53_Y234_N235M]: the enrichment score was inactive: 2.24.

Take CTTIHYNYKCN [TP53_Y234_M237K]: the enrichment score was inactive: 2.07.

With CTTSHYNFMCN [TP53_Y234_I232S_YF], the enrichment score was inactive: 2.3.

With SVVVPYEPPEG [TP53_Y220_V225G], the enrichment score was inactive: 0.612.

With CTTIHYNYTCN [TP53_Y234_M237T], the enrichment score was inactive: 2.54.

For CTTIHYNFMRN [TP53_Y234_C238R_YF], the enrichment score was inactive: 1.76.

Turning to SVEVPYEPPEV [TP53_Y220_V217E], the enrichment score was inactive: 0.605.

CTTIHYNFMCD [TP53_Y234_N239D_YF]: the enrichment score was active: 3.21.

For CTTIRYNFMCN [TP53_Y234_H233R_YF], the enrichment score was inactive: 2.53.

Regarding CTTIHYNFMFN [TP53_Y234_C238F_YF], the enrichment score was inactive: 2.47.

Consider NTTIHYNYMCN [TP53_Y234_C229N], for which the enrichment score is inactive: 0.786.

As to CTTVHYNFMCN [TP53_Y234_I232V_YF], the enrichment score is inactive: 2.59.

For the molecule SVVVPYEPPEL [TP53_Y220_V225L], the enrichment score was inactive: 0.698.

As for CTTIHYNYMGN [TP53_Y234_C238G], the enrichment score is inactive: 1.39.

With CTTIHYNFKCN [TP53_Y234_M237K_YF], the enrichment score was inactive: 2.13.

As for CTTIHYYYMCN [TP53_Y234_N235Y], the enrichment score is inactive: 2.73.

The next assay deals with SHP2 N-SH2 domain T52S. The assay is described as above. As to conditions: peptide library: pTyr-Var.
On to SVMVPYEPPEV [TP53_Y220_V217M], for which the enrichment score was inactive: 0.722.

For CTTIQYNFMCN [TP53_Y234_H233Q_YF], the enrichment score was active: 3.3.

With CTTILYNFMCN [TP53_Y234_H233L_YF], the enrichment score is inactive: 3.08.

For CTTIHYMYMCN [TP53_Y234_N235M], the enrichment score was inactive: 2.27.

With CTTIHYNYKCN [TP53_Y234_M237K], the enrichment score was inactive: 2.75.

For CTTSHYNFMCN [TP53_Y234_I232S_YF], the enrichment score is inactive: 2.36.

With SVVVPYEPPEG [TP53_Y220_V225G], the enrichment score was inactive: 0.805.

CTTIHYNYTCN [TP53_Y234_M237T]: the enrichment score is inactive: 2.92.

With CTTIHYNFMRN [TP53_Y234_C238R_YF], the enrichment score is inactive: 1.81.

Regarding SVEVPYEPPEV [TP53_Y220_V217E], the enrichment score is inactive: 0.631.

As to CTTIHYNFMCD [TP53_Y234_N239D_YF], the enrichment score is inactive: 3.11.

For the molecule CTTIRYNFMCN [TP53_Y234_H233R_YF], the enrichment score was inactive: 3.18.

As for CTTIHYNFMFN [TP53_Y234_C238F_YF], the enrichment score was inactive: 2.18.

Take NTTIHYNYMCN [TP53_Y234_C229N]: the enrichment score was inactive: 0.759.

On to CTTVHYNFMCN [TP53_Y234_I232V_YF], for which the enrichment score was inactive: 2.97.

For the molecule SVVVPYEPPEL [TP53_Y220_V225L], the enrichment score was inactive: 0.691.

With CTTIHYNYMGN [TP53_Y234_C238G], the enrichment score is inactive: 1.55.

CTTIHYNFKCN [TP53_Y234_M237K_YF]: the enrichment score is inactive: 2.4.

Turning to CTTIHYYYMCN [TP53_Y234_N235Y], the enrichment score is inactive: 3.02.

The target of a further assay is SHP2 N-SH2 domain wild-type. The assay is described as above. As to conditions: peptide library: pTyr-Var.
Turning to SVMVPYEPPEV [TP53_Y220_V217M], the enrichment score was inactive: 0.808.

As for CTTIQYNFMCN [TP53_Y234_H233Q_YF], the enrichment score is active: 3.34.

Take CTTILYNFMCN [TP53_Y234_H233L_YF]: the enrichment score was inactive: 2.92.

Take CTTIHYMYMCN [TP53_Y234_N235M]: the enrichment score was inactive: 2.33.

Consider CTTIHYNYKCN [TP53_Y234_M237K], for which the enrichment score was inactive: 2.21.

In the case of CTTSHYNFMCN [TP53_Y234_I232S_YF], the enrichment score was inactive: 2.13.

In the case of SVVVPYEPPEG [TP53_Y220_V225G], the enrichment score was inactive: 0.795.

As to CTTIHYNYTCN [TP53_Y234_M237T], the enrichment score was inactive: 2.81.

On to CTTIHYNFMRN [TP53_Y234_C238R_YF], for which the enrichment score was inactive: 1.77.

Turning to SVEVPYEPPEV [TP53_Y220_V217E], the enrichment score is inactive: 0.61.

As to CTTIHYNFMCD [TP53_Y234_N239D_YF], the enrichment score was inactive: 3.04.

With CTTIRYNFMCN [TP53_Y234_H233R_YF], the enrichment score is active: 3.2.

Consider CTTIHYNFMFN [TP53_Y234_C238F_YF], for which the enrichment score is inactive: 2.73.

On to NTTIHYNYMCN [TP53_Y234_C229N], for which the enrichment score was inactive: 0.867.

CTTVHYNFMCN [TP53_Y234_I232V_YF]: the enrichment score is inactive: 2.9.

Regarding SVVVPYEPPEL [TP53_Y220_V225L], the enrichment score is inactive: 0.694.

As to CTTIHYNYMGN [TP53_Y234_C238G], the enrichment score was inactive: 1.26.

CTTIHYNFKCN [TP53_Y234_M237K_YF]: the enrichment score was inactive: 2.35.

With CTTIHYYYMCN [TP53_Y234_N235Y], the enrichment score was active: 4.14.
